Some of the results follow.
Columns and labels:
[1] = system: HSkMC (human skeletal muscle cells); test: cytotoxicity call (relative viability < 0.9); conditions: 10 µM
[2] = system: HepG2; test: cytotoxicity call (relative viability < 0.9); conditions: 10 µM
[3] = system: S. aureus RN4220; test: growth inhibition call (relative growth <= 0.2); conditions: 50 µM

Row | SMILES | cytotoxicity call [1] | cytotoxicity call [2] | growth inhibition call [3]
1 | CNC(=O)C[C@@H]1CC[C@H]2[C@@H](COc3ccc(NC(=O)c4ccc(C(F)(F)F)cc4)cc3C(=O)N2C)O1 | inactive | inactive | inactive
2 | C=CCC[C@H](Cc1ccc(F)cc1)C(=O)OC[C@H]1CCCN1C(=O)[C@@H](CC=C)CC(=O)N(CCO)Cc1ccccc1 | active | inactive | inactive
3 | CN1C(=O)c2cc(NC(=O)Cc3cccs3)ccc2OC[C@@H]2O[C@H](CC(=O)NCCCN3CCOCC3)CC[C@@H]21 | inactive | inactive | inactive
4 | C[C@@H]1CN([C@@H](C)CO)C(=O)c2cccc(NC(=O)C3CCCCC3)c2O[C@H]1CN(C)Cc1ccc(Oc2ccccc2)cc1 | inactive | inactive | inactive
5 | Cc1ccc(Oc2nnc(-c3cccs3)c3ccccc23)cc1 | inactive | inactive | inactive
6 | C[C@@H]1CN([C@@H](C)CO)C(=O)Cc2cc(NS(=O)(=O)c3ccc(Cl)cc3)ccc2O[C@@H]1CN(C)C(=O)Nc1ccc(C(F)(F)F)cc1 | inactive | inactive | inactive
7 | COc1ccc(N(C(=O)CSc2ncccn2)[C@@H](C(=O)NCCc2ccccc2)c2cccs2)cc1Cl | inactive | inactive | inactive
8 | CC(C)NC(=O)Nc1ccc2c(c1)C(=O)N([C@@H](C)CO)C[C@@H](C)[C@@H](CN(C)C(=O)C1CCCCC1)OCCCC[C@@H](C)O2 | inactive | inactive | inactive
9 | Nc1nc(=O)[nH]cc1Br | inactive | inactive | inactive
10 | Cc1noc(C)c1NC(=O)Nc1cccc2c1O[C@@H](CN(C)Cc1ccc(C(F)(F)F)cc1)[C@H](C)CN([C@H](C)CO)C2=O | inactive | inactive | inactive
11 | COc1ccc(NC(=O)N[C@@H]2CC[C@@H](CCNC(=O)CN3CCOCC3)O[C@H]2CO)cc1 | inactive | inactive | inactive
12 | CO[C@@H](CN(C)C(=O)c1ccc2c(c1)OCO2)[C@H](C)CN([C@@H](C)CO)S(=O)(=O)c1ccc(F)cc1 | inactive | inactive | inactive
13 | C[C@@H]1CN([C@H](C)CO)S(=O)(=O)c2ccc(C#CC3CCCC3)cc2O[C@@H]1CN(C)C(=O)Cc1ccncc1 | inactive | inactive | inactive
14 | CC(=O)Oc1ccc(C(c2ccc(OC(C)=O)cc2)c2ccccn2)cc1 | inactive | inactive | inactive
15 | C[C@@H]1CN([C@@H](C)CO)C(=O)c2cc(NC(=O)CCC(F)(F)F)ccc2O[C@@H](C)CCCCO[C@H]1CN(C)Cc1ccc(C(F)(F)F)cc1 | inactive | inactive | inactive
16 | Cc1ccc(S(=O)(=O)NCC[C@H]2CC[C@@H](NS(=O)(=O)c3ccccc3Cl)[C@H](CO)O2)cc1 | inactive | inactive | inactive
17 | Cl.NC[C@H](N)C(=O)O | inactive | inactive | inactive
18 | C[C@@H]1CCCCO[C@@H](CN(C)S(=O)(=O)c2ccccc2)[C@H](C)CN([C@H](C)CO)C(=O)c2cc(NS(=O)(=O)c3ccc(Cl)cc3)ccc2O1 | inactive | inactive | inactive
19 | C[C@H](CO)N1C[C@H](C)[C@H](CN(C)Cc2ccc(C(F)(F)F)cc2)Oc2ccc(NS(C)(=O)=O)cc2CC1=O | inactive | inactive | inactive
20 | C[C@@H]1CCCCO[C@H](CN(C)C(=O)CCC(F)(F)F)[C@H](C)CN([C@@H](C)CO)C(=O)c2cc(NS(=O)(=O)c3ccccc3)ccc2O1 | inactive | inactive | inactive
21 | O=C(C[C@H]1CC[C@@H]2[C@H](COC[C@@H](O)CN2C(=O)Nc2cccc(Cl)c2)O1)NCCCN1CCOCC1 | inactive | inactive | active
22 | C[C@H](CO)N1C[C@H](C)[C@H](CN(C)C(=O)c2cccnc2)Oc2cc(-c3cccc(C#N)c3)ccc2S1(=O)=O | inactive | inactive | inactive
23 | COCC(=O)Nc1ccc2c(c1)C(=O)N(C)[C@H]1CC[C@H](CC(=O)NCc3ccccc3Cl)O[C@@H]1CO2 | inactive | inactive | inactive
24 | C[C@H]1CN([C@@H](C)CO)S(=O)(=O)c2ccc(-c3cccnc3)cc2O[C@@H]1CN(C)C(=O)NC1CCCCC1 | inactive | inactive | inactive
25 | C[C@@H]1CCCCO[C@H](CN(C)C(=O)Nc2ccc(C(F)(F)F)cc2)[C@H](C)CN([C@H](C)CO)C(=O)c2cc(NS(=O)(=O)c3ccc(Cl)cc3)ccc2O1 | inactive | active | inactive
26 | COC(=O)[C@@H](NC(=O)Cn1cc(C(=O)NO)nn1)c1ccccc1 | inactive | active | inactive
27 | C[C@@H]1CCCCO[C@H](CN(C)C(=O)Cc2ccccc2)[C@@H](C)CN([C@H](C)CO)C(=O)c2cc(NC(=O)Nc3ccc(F)cc3)ccc2O1 | inactive | inactive | inactive
28 | CCCC(=O)Nc1ccc2c(c1)C(=O)N(C)C[C@H](OC)[C@H](C)CN(Cc1ccc(-c3ccccn3)cc1)[C@H](C)CO2 | inactive | inactive | inactive

Row | SMILES | cytotoxicity call [1] | cytotoxicity call [2] | growth inhibition call [3]
29 | Cc1noc(C)c1NC(=O)Nc1ccc2c(c1)C(=O)N([C@@H](C)CO)C[C@@H](C)[C@H](CN(C)C(=O)c1ccccc1)OCCCC[C@H](C)O2 | inactive | inactive | inactive
30 | C[C@@H]1CCCCO[C@H](CN(C)Cc2ccc3c(c2)OCO3)[C@H](C)CN([C@@H](C)CO)C(=O)c2cc(NC(=O)C3CCCCC3)ccc2O1 | inactive | active | inactive
31 | COc1ccc(S(=O)(=O)N(C)C[C@@H]2OCCCC[C@H](C)Oc3ccc(NC(=O)Nc4cccc5ccccc45)cc3C(=O)N([C@H](C)CO)C[C@@H]2C)cc1 | inactive | inactive | inactive
32 | COc1ccc(NC(=O)N(C)C[C@@H]2OCCCC[C@H](C)Oc3ccc(NC(=O)NC4CCCCC4)cc3C(=O)N([C@H](C)CO)C[C@@H]2C)cc1 | inactive | inactive | inactive
33 | O=C(C[C@H]1C=C[C@H](NC(=O)Nc2ccc3c(c2)OCO3)[C@@H](CO)O1)NCCCN1CCOCC1 | inactive | inactive | inactive
34 | C[C@@H]1CN([C@H](C)CO)C(=O)c2cc(NC(=O)Nc3ccc(F)cc3)ccc2O[C@@H](C)CCCCO[C@@H]1CN(C)Cc1ccc(C(=O)O)cc1 | inactive | inactive | inactive
35 | COCC#Cc1cnc2c(c1)C(=O)N([C@H](C)CO)C[C@H](C)[C@@H](CN(C)C(=O)CN1CCOCC1)O2 | inactive | inactive | inactive
36 | Cc1noc(C)c1S(=O)(=O)Nc1cccc2c1O[C@H](CN(C)Cc1ccc(-c3ccccc3)cc1)[C@H](C)CN([C@H](C)CO)C2=O | inactive | inactive | inactive
37 | COc1ccc(NC(=O)N(C)C[C@H]2OCCCC[C@H](C)Oc3ccc(NC(=O)c4ccccc4)cc3C(=O)N([C@H](C)CO)C[C@@H]2C)cc1 | inactive | inactive | inactive
38 | O=C(NO)c1ccc(C(=O)N/N=C/[C@H](O)[C@@H](O)[C@H](O[C@@H]2O[C@H](CO)[C@H](O)[C@H](O)[C@H]2O)[C@H](O)CO)cc1 | inactive | inactive | inactive
39 | Cc1ccc2sc(N(CCCN(C)C)C(=O)c3ccc(S(=O)(=O)N(C)C4CCCCC4)cc3)nc2c1C | active | active | active
40 | COc1ccc(S(=O)(=O)Nc2cccc3c2O[C@H](CN(C)S(=O)(=O)c2ccc(OC)cc2)[C@H](C)CN([C@@H](C)CO)C3=O)cc1 | inactive | inactive | inactive
41 | CC(C)(C)[S@@](=O)N1Cc2cc(C(=O)N3CCCCC3)nc(-c3cccc(-c4ccc(C#N)cc4)c3)c2[C@H]1CCO | inactive | inactive | inactive
42 | O=C(O)CN(CCN(CC(=O)O)CC(=O)O)CC(=O)O | inactive | inactive | inactive
43 | CC(C)NC(=O)N(C)C[C@@H]1Oc2ccc(NS(=O)(=O)c3cn(C)cn3)cc2C(=O)N([C@@H](C)CO)C[C@H]1C | inactive | inactive | inactive
44 | COCCCN1C(=O)[C@@]2(Cc3ccccc31)c1ccccc1C(=O)N(Cc1ccccc1)[C@H]2c1ccc(CO)cc1 | inactive | inactive | inactive
45 | Cc1noc(C)c1S(=O)(=O)N(C)C[C@H]1OCCCC[C@H](C)Oc2ccc(NC(=O)Nc3ccc(C(F)(F)F)cc3)cc2C(=O)N([C@H](C)CO)C[C@H]1C | inactive | inactive | inactive
46 | COc1ccccc1-c1cccc(-c2nc(C(=O)N3CCCCC3)cc3c2[C@@H](CCO)N([S@@](=O)C(C)(C)C)C3)c1 | inactive | inactive | inactive
47 | C[C@@H]1CN([C@@H](C)CO)C(=O)c2cc(NC(=O)c3ccncc3)ccc2O[C@H]1CN(C)Cc1ccc(Oc2ccccc2)cc1 | inactive | inactive | inactive
48 | CS(=O)(=O)N1[C@@H]2Cn3c(ccc(-c4ccccc4)c3=O)[C@H]1[C@@H](C(=O)NCC1CC1)[C@@H]2CO | inactive | inactive | inactive
49 | [O-]/[N+](=N\O[C@H]1O[C@H](CO)[C@@H](O)[C@H](O)[C@@H]1O)N1CCCC1 | inactive | inactive | inactive
50 | O=c1cc(CO)occ1O | inactive | inactive | inactive
51 | CC(C)NC(=O)Nc1ccc2c(c1)C(=O)N([C@@H](C)CO)C[C@H](C)[C@H](CN(C)C(=O)Nc1ccccc1)OCCCC[C@@H](C)O2 | inactive | inactive | inactive
52 | C[C@@H]1CN([C@H](C)CO)C(=O)c2cc(-c3ccc(C#N)cc3)cnc2O[C@H]1CN(C)C(=O)Nc1ccc(C(F)(F)F)cc1 | inactive | inactive | inactive
53 | C[C@@H]1CN([C@H](C)CO)C(=O)c2cc(NC(=O)Nc3ccc(C(F)(F)F)cc3)ccc2O[C@@H]1CN(C)C(=O)NC1CCCCC1 | active | active | inactive
54 | O=C(C[C@H]1C[C@@H]2c3cc(NS(=O)(=O)c4ccc(F)cc4)ccc3O[C@@H]2[C@@H](CO)O1)NCc1ccccc1 | inactive | inactive | inactive
55 | O=C(NCC(F)(F)F)[C@@H]1[C@@H](CO)[C@@H]2Cn3c(cccc3=O)[C@@H]2N1C(=O)C1CCC1 | inactive | inactive | inactive

From the antibiotic and cytotoxicity screens of Wong et al. (2023)
